# Test results as given in PubChem BioAssay AID540317 (National Center for Advancing Translational Sciences (NCATS), 2011).
# About 2,200 (0.56%) of roughly 390,000 compounds were called active. The shares of active, inactive and inconclusive entries below differ from those in the screen. Calls come from the whole dose curve; as a rule, active = well fitted inhibition curve with a large enough effect; inconclusive = small, poorly fitted or top-dose-only effect; inactive = no such curve, though single readings can be large or run the other way. Where the call is inconclusive, the potency comes from a doubtful curve fit.
# Molecular target: Chromobox protein homolog 1 (Homo sapiens) (UniProt P83916)
# Assay: HTS for Inhibitors of HP1-beta Chromodomain Interactions with Methylated Histone Tails; note: nearly all actives have a fitted effect of over 70% in size
# Conditions: AlphaScreen HP1-beta / biotin-H3K9me3 peptide binding; series mostly up to 114 µM; activity change, negative = inhibition: at the top concentration
# Method in brief: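 Compound inhibition of the preformed complex between 50 nM HP1-beta and 50 nM biotinylated H3K9me3 peptide was read by AlphaScreen. Buffer was PBS pH 7.4 with 0.01% Tween-20. Incubations ran 30 min at room temperature, with 10 ug/mL donor/acceptor beads.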
# Potency is the fitted concentration of half-maximal effect; tags give direction and shape of the fitted curve.
# Sequence of UniProt P83916 (P83916 whole entry, looked up): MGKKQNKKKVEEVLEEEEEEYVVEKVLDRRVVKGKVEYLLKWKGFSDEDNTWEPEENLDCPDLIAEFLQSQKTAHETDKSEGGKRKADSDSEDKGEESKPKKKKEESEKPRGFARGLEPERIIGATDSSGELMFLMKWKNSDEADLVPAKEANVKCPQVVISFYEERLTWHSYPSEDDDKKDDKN
SMILES,"activity change, negative = inhibition",Potency
CS(=O)(=O)N(CC(=O)O)c1cc(Cl)cc(Cl)c1,inactive: 47.6%,–
CCOC(=O)C1CCN(C(=O)c2ccc3nc(-c4ccc(OC)cc4)c(-c4ccc(OC)cc4)nc3c2)CC1,inactive: 61.8%,–
COc1cccc(C2=Nc3cccc4cccc(c34)N2)c1,–,"inconclusive: 56.2 µM [inhibitor, partial curve, poor fit]"
COc1ccc(NC(=O)[C@@H]2CCCN2S(=O)(=O)c2ccccc2F)cc1S(=O)(=O)N1CCCCC1,inactive: 12.3% [at 57 µM],–
Cc1ccc(N2C(N)=C(C#N)C3(C(=O)N(C)c4ccccc43)C3=C2CC(C)(C)CC3=O)cc1Cl (stereo unspecified),inactive: 18.9%,–
O=C(Nc1ccc(F)cc1F)c1noc2c1CCc1ccccc1-2,inactive: 52.3%,–
CCOc1ccc(OCC)c(NC(=O)CN2CCN(CC)CC2)c1,–,"inconclusive: 50.1 µM [inhibitor, partial curve, poor fit]"
CC/C(C)=N/Nc1nc2c(c(=O)[nH]c(=O)n2C)n1Cc1ccccc1,–,"inconclusive: 70.8 µM [inhibitor, partial curve]"
Cc1cccc(NC(=S)NC(=O)/C=C/c2ccco2)c1,–,"inconclusive: 50.1 µM [inhibitor, partial curve]"
COc1cccc(CNCc2ccccc2Br)c1OC,–,"inconclusive: 56.2 µM [inhibitor, partial curve, poor fit]"
FC(F)(F)c1ccc(CN2CCCCCC2)cc1,–,"inconclusive: 50.1 µM [inhibitor, partial curve]"
COc1ccc(S(=O)(=O)NCC(=O)N(CC(=O)NCc2ccco2)Cc2ccccc2)cc1,–,"inconclusive: 89.1 µM [inhibitor, partial curve, poor fit]"
CCOC(=O)NC(=O)CSc1nc(-c2ccc(C)c(C)c2)cn1-c1ccccc1,–,"inconclusive: 39.8 µM [inhibitor, full curve]"
Cc1cccc(NC(=O)Cn2cc(C(=O)c3ccco3)c3ccccc32)c1C,inactive: 13.9%,–
CCCCC1=CC2=CC(=O)C(C)(OC(=O)CCc3ccccc3)C(=O)C2=CO1 (stereo unspecified),–,"inconclusive: 39.8 µM [inhibitor, partial curve]"
Cc1nn(CC(=O)NCc2ccc(OC(C)C)cc2)c(=O)c2c(C)n(-c3ccc(Cl)cc3)nc12,inactive: 9.86% [at 57 µM],–
COc1ccc(C2=NN3C(C2)c2ccccc2OC32C(=O)N(C)c3ccccc32)cc1 (stereo unspecified),inactive: 15.9%,–
Oc1ccccc1/C=N/n1c(COc2ccccc2)n[nH]c1=S,–,"inconclusive: 50.1 µM [inhibitor, partial curve]"
CCCN1CCCc2cc(CN(CCCN3CCOCC3)C(=O)Nc3ccc(CC)cc3)ccc21,–,"inconclusive: 14.1 µM [inhibitor, full curve]"
COC(=O)c1ccc(OCCCCN2CC(C)OC(C)C2)cc1 (stereo unspecified),–,"inconclusive: 31.6 µM [inhibitor, partial curve]"
Cc1cc(C)c(NC(=S)NCCCSC2CCCCC2)c(C)c1,–,"inconclusive: 22.4 µM [inhibitor, full curve]"
CCCCc1nn2c(=O)cc(COC(=O)c3ccccc3NC(=O)c3ccccc3OC)nc2s1,inactive: 19.6%,–

SMILES,"activity change, negative = inhibition",Potency
O=C1C(c2ccccc2)=[N+]([O-])c2ccccc21,–,"inconclusive: 12.6 µM [inhibitor, full curve]"
CN(C)S(=O)(=O)c1ccc(=S)[nH]c1,–,"inconclusive: 22.4 µM [inhibitor, single point]"
CC(=O)c1cc2c(cc1NC(=O)CN1CCCCCC1)OCO2,–,"inconclusive: 14.1 µM [inhibitor, full curve, poor fit]"
CN(C)Cc1ccccc1Sc1ccc2c(c1)CCCC2,–,"inconclusive: 50.1 µM [inhibitor, partial curve, poor fit]"
O=C(C=C(C(=O)c1ccccc1)c1ccccc1)c1ccccc1,inactive: -14% [at 57 µM],–
N=C1/C(=C\c2ccc(-c3cccc(C(=O)O)c3)o2)C(=O)N=C2SC=C(c3ccccc3)N12,–,"inconclusive: 22.4 µM [inhibitor, full curve]"
COc1ccccc1NS(=O)(=O)c1cc(NC(=O)c2ccc(=O)[nH]c2)ccc1N1CCOCC1,–,"inconclusive: 28.2 µM [inhibitor, partial curve]"
Nc1ccc(Sc2ccc([N+](=O)[O-])cc2)cc1,–,"inconclusive: 39.8 µM [inhibitor, partial curve, poor fit]"
CCCN1CNc2c(c(=O)[nH]c(=S)n2CCc2ccc(Cl)cc2Cl)C1,inactive: 13.5%,–
CCN1/C(=C2\C(=O)N(C)C(=S)N2C)C=Cc2cc(OC)ccc21,–,"inconclusive: 50.1 µM [inhibitor, partial curve]"
CCOC(=O)C1=C(C)Nc2nc(=S)[nH]n2C1c1ccc(Cl)cc1 (stereo unspecified),–,"inconclusive: 50.1 µM [inhibitor, single point]"
O=C(NCc1ccco1)c1ccc([N+](=O)[O-])o1,–,"inconclusive: 70.8 µM [inhibitor, partial curve]"
COc1ccc(/C=C2\SC(N3CCCCC3)=NC2=O)cc1OC,inactive: -21.7%,–
CC1=NN(c2ccc(C)cc2)C(=O)/C1=C/c1ccc(-c2cc([N+](=O)[O-])ccc2O)o1,–,active: 31.6 µM
CCOC(=O)c1sc(SCC(=O)Nc2ccc(N(C)C)cc2)nc1N,–,"inconclusive: 50.1 µM [inhibitor, partial curve]"
Cc1ccc(C)c(N=Nc2nc3ccccc3n2C)c1,–,active: 15.8 µM
Cc1ccc(-c2nc3sccn3c2Nc2ccccc2C)cc1,–,"inconclusive: 14.1 µM [inhibitor, full curve, poor fit]"
CC(/C=C1\SC(=S)N(c2ccc(C(=O)O)cc2)C1=O)=C\c1ccccc1,–,"inconclusive: 70.8 µM [inhibitor, single point]"
CCC(=O)Nc1ccc(N2CCOCC2)c(S(=O)(=O)Nc2ccc(Cl)cc2)c1,–,"inconclusive: 8.91 µM [inhibitor, full curve, poor fit]"
CN(Cc1cnn(C)c1)Cc1nc(COc2ccccc2)no1,–,"inconclusive: 44.7 µM [inhibitor, partial curve, poor fit]"
COc1ccc(NC(=O)CSc2oc(-c3ccc(C)cc3)nc2S(=O)(=O)c2ccc(C)cc2)c(OC)c1,–,"inconclusive: 44.7 µM [inhibitor, single point]"
Nc1c(-c2ccccc2)c(CSc2nc3ccccc3[nH]2)nn1-c1ccc(C(=O)O)cc1,–,"inconclusive: 6.31 µM [inhibitor, full curve, poor fit]"

SMILES,"activity change, negative = inhibition",Potency
CCc1ccc(NC(=S)Nc2cc(OC)c(NC(=O)C(C)C)cc2OC)cc1,–,"inconclusive: 50.1 µM [inhibitor, partial curve, poor fit]"
CC1CCN(S(=O)(=O)N2CCC(C(=O)NCCc3ccccc3)CC2)CC1,–,"inconclusive: 39.8 µM [inhibitor, single point]"
C=CCn1c(O)c(N=NC(=S)Nc2ccccc2F)c2ccccc21,–,"inconclusive: 10 µM [inhibitor, full curve, poor fit]"
Cc1cc(C)cc(NC(=O)CN2C(=O)COc3ccc(S(=O)(=O)Nc4ccccc4)cc32)c1,inactive: 20.9%,–
OCCNCCOCCOc1ccccc1-c1ccccc1,–,"inconclusive: 56.2 µM [inhibitor, single point]"
O=C(O)c1cc(S(=O)(=O)O)cc(Nc2c3ccccc3nc3ccccc23)c1O,–,"inconclusive: 79.4 µM [inhibitor, single point]"
O=C(c1ccccc1F)N1CCC(N2CCCCCC2)CC1,–,"inconclusive: 56.2 µM [inhibitor, single point]"
COC1(NC(=O)c2ccccc2)C(C)=CC(=O)C=C1C,–,"inconclusive: 56.2 µM [inhibitor, single point]"
Cc1cc2nc3c(=O)[nH]c(=O)[nH]c3nc2c([N+](=O)[O-])c1N,–,"inconclusive: 56.2 µM [inhibitor, partial curve, poor fit]"
CCCCc1oc2ccccc2c1C(=O)c1cc(I)c(N(CC)CCOCC)c(I)c1,inactive: -6.06%,–
CC(=O)Oc1ccc(N(C(C)=O)S(=O)(=O)c2cc([N+](=O)[O-])ccc2C)cc1,–,"inconclusive: 39.8 µM [inhibitor, single point]"
Oc1c(N=NC(=S)Nc2ccccc2F)c2ccccc2n1Cc1ccccc1F,–,"inconclusive: 10 µM [inhibitor, partial curve]"
O=[N+]([O-])c1ccc(/C=N/N2CCN(Cc3ccccc3)CC2)cc1,–,"inconclusive: 56.2 µM [inhibitor, partial curve, poor fit]"
Cc1cccc(NC(=S)NC2CC3CCC(C2)N3Cc2ccco2)c1 (stereo unspecified),inactive: 4.77%,–
O=C(c1ccc(-c2ccc(Cl)cc2)o1)N1CCN(c2ccc([N+](=O)[O-])cc2Cl)CC1,–,"inconclusive: 14.1 µM [inhibitor, partial curve]"
Fc1ccccc1N1CCN(CCCc2ccccc2)CC1,–,"inconclusive: 22.4 µM [inhibitor, full curve]"
COC(=O)c1ccccc1NC(=O)c1cc2nc(-c3ccccc3)cc(-c3ccccc3)n2n1,inactive: 46.8%,–
CCOc1ccc(NC(=O)CN(C)C(=O)c2cc(C)oc2C)cc1OCC,inactive: 22.3%,–
N#Cc1c(NCCCO)nc(NCc2ccccc2)c2c1CCN(Cc1ccccc1)C2,–,"inconclusive: 50.1 µM [inhibitor, partial curve, poor fit]"
O=C(NCc1ccccc1Cl)c1ccc(S(=O)(=O)Nc2cccc(C(F)(F)F)c2)cc1,–,"inconclusive: 39.8 µM [inhibitor, single point]"
Cc1ccc(OCCCn2ccnc2)c(Br)c1,–,"inconclusive: 28.2 µM [inhibitor, full curve]"
O=C(CSc1ncn(-c2ccccc2)n1)Nc1nc2c(s1)CCCC2,–,"inconclusive: 44.7 µM [inhibitor, partial curve, poor fit]"
